For 31 sequences, binding signal (RPM ratio (pull-down/input)) results are on record in PMC12820563.

Some of the results follow. The list includes weakly bound sequences.

This assay has as its target T1, MBP-FoxP3dN (UniProt Q99JB6).
T1 sequence: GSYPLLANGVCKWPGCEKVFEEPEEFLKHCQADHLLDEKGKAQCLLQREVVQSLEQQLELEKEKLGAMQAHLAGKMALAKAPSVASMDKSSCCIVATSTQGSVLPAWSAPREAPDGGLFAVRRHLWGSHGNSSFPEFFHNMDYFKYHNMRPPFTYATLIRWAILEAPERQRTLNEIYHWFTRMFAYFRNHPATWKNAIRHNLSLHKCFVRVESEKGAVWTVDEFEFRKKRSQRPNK
Description: PD-seq (MBP pull-down with sequencing). Particulars: 20 mM Tris-HCl pH 7.5, 100 mM NaCl, 1.5 mM MgCl2, 0.4 uM protein, 0.1 uM dsDNA library, 30 min, room temperature, amylose pull-down; high values mean tight binding; double strand, one strand shown.
Turning to “GATGATTGTTCTCCCAGCTGATGAATTCCAGAGATCGAGTAAACAAATTTTCCTAATCTTTCTGTTCAAGCGCCATCTAC”, the binding signal (RPM ratio (pull-down/input)) amounted to 0.223.
Regarding “GATGATTGTTCTCCCAGCTGATGAATTCCCCTGATCGAGTAAACAAATTTTCCTAATCTTTCTGTTCAAGCGCCATCTAC”, the binding signal (RPM ratio (pull-down/input)) stood at 0.207.
For “GATGATTGTTCTCCCAGCTGATGAATTTTGATTCTCGAGTAAACAAATTTTCCTAATCTTTCTGTTCAAGCGCCATCTAC”, the binding signal (RPM ratio (pull-down/input)) was found to be 1.11.
With “GATGATTGTTCTCCCAGCTGATGAATTAATCGAATCGAGTAAACAAATTTTCCTAATCTTTCTGTTCAAGCGCCATCTAC”, the binding signal (RPM ratio (pull-down/input)) turned out to be 0.245.
As for “GATGATTGTTCTCCCAGCTGATGAATTAATATAGTCGAGTAAACAAATTTTCCTAATCTTTCTGTTCAAGCGCCATCTAC”, the binding signal (RPM ratio (pull-down/input)) was found to be 0.614.
Take “GATGATTGTTCTCCCAGCTGATGAATTGAGACGCTCGAGTAAACAAATTTTCCTAATCTTTCTGTTCAAGCGCCATCTAC”: the binding signal (RPM ratio (pull-down/input)) was determined as 0.414.
As to “GATGATTGTTCTCCCAGCTGATGAATTGAATATGTCGAGTAAACAAATTTTCCTAATCTTTCTGTTCAAGCGCCATCTAC”, the binding signal (RPM ratio (pull-down/input)) came out at 0.689.
For the sequence “GATGATTGTTCTCCCAGCTGATGAATTTGGTCTCTCGAGTAAACAAATTTTCCTAATCTTTCTGTTCAAGCGCCATCTAC”, the binding signal (RPM ratio (pull-down/input)) was determined as 0.705.
Regarding “GATGATTGTTCTCCCAGCTGATGAATTCCCGGCATCGAGTAAACAAATTTTCCTAATCTTTCTGTTCAAGCGCCATCTAC”, the binding signal (RPM ratio (pull-down/input)) amounted to 0.52.
Turning to “GATGATTGTTCTCCCAGCTGATGAATTGACATTGTCGAGTAAACAAATTTTCCTAATCTTTCTGTTCAAGCGCCATCTAC”, the binding signal (RPM ratio (pull-down/input)) turned out to be 0.658.
Regarding “GATGATTGTTCTCCCAGCTGATGAATTCGAGAGCTCGAGTAAACAAATTTTCCTAATCTTTCTGTTCAAGCGCCATCTAC”, the binding signal (RPM ratio (pull-down/input)) worked out at 0.192.
In the case of “GATGATTGTTCTCCCAGCTGATGAATTCTAGGTTTCGAGTAAACAAATTTTCCTAATCTTTCTGTTCAAGCGCCATCTAC”, the binding signal (RPM ratio (pull-down/input)) turned out to be 0.456.
For “GATGATTGTTCTCCCAGCTGATGAATTCCAAGAATCGAGTAAACAAATTTTCCTAATCTTTCTGTTCAAGCGCCATCTAC”, the binding signal (RPM ratio (pull-down/input)) stood at 0.156.
Consider “GATGATTGTTCTCCCAGCTGATGAATTTATTCACTCGAGTAAACAAATTTTCCTAATCTTTCTGTTCAAGCGCCATCTAC”, for which the binding signal (RPM ratio (pull-down/input)) is 0.821.
On to “GATGATTGTTCTCCCAGCTGATGAATTAGTCGCGTCGAGTAAACAAATTTTCCTAATCTTTCTGTTCAAGCGCCATCTAC”, for which the binding signal (RPM ratio (pull-down/input)) was 0.919.
Consider “GATGATTGTTCTCCCAGCTGATGAATTGAAGGTGTCGAGTAAACAAATTTTCCTAATCTTTCTGTTCAAGCGCCATCTAC”, for which the binding signal (RPM ratio (pull-down/input)) stood at 0.428.
Take “GATGATTGTTCTCCCAGCTGATGAATTCGCCGTCTCGAGTAAACAAATTTTCCTAATCTTTCTGTTCAAGCGCCATCTAC”: the binding signal (RPM ratio (pull-down/input)) was found to be 0.497.
With “GATGATTGTTCTCCCAGCTGATGAATTGAAATACTCGAGTAAACAAATTTTCCTAATCTTTCTGTTCAAGCGCCATCTAC”, the binding signal (RPM ratio (pull-down/input)) is 0.437.
Take “GATGATTGTTCTCCCAGCTGATGAATTGCGATCGTCGAGTAAACAAATTTTCCTAATCTTTCTGTTCAAGCGCCATCTAC”: the binding signal (RPM ratio (pull-down/input)) came to 0.79.
As for “GATGATTGTTCTCCCAGCTGATGAATTCTAAGTGTCGAGTAAACAAATTTTCCTAATCTTTCTGTTCAAGCGCCATCTAC”, the binding signal (RPM ratio (pull-down/input)) was determined as 0.48.
Turning to “GATGATTGTTCTCCCAGCTGATGAATTGGCGACTTCGAGTAAACAAATTTTCCTAATCTTTCTGTTCAAGCGCCATCTAC”, the binding signal (RPM ratio (pull-down/input)) was found to be 0.807.
For “GATGATTGTTCTCCCAGCTGATGAATTAGGGTCTTCGAGTAAACAAATTTTCCTAATCTTTCTGTTCAAGCGCCATCTAC”, the binding signal (RPM ratio (pull-down/input)) was determined as 0.666.
Regarding “GATGATTGTTCTCCCAGCTGATGAATTACGCATTTCGAGTAAACAAATTTTCCTAATCTTTCTGTTCAAGCGCCATCTAC”, the binding signal (RPM ratio (pull-down/input)) amounted to 6.65.
Turning to “GATGATTGTTCTCCCAGCTGATGAATTATCTAAGTCGAGTAAACAAATTTTCCTAATCTTTCTGTTCAAGCGCCATCTAC”, the binding signal (RPM ratio (pull-down/input)) was 0.246.
Turning to “GATGATTGTTCTCCCAGCTGATGAATTCACAAGTTCGAGTAAACAAATTTTCCTAATCTTTCTGTTCAAGCGCCATCTAC”, the binding signal (RPM ratio (pull-down/input)) is 0.282.
The figure for “GATGATTGTTCTCCCAGCTGATGAATTGCTAAAGTCGAGTAAACAAATTTTCCTAATCTTTCTGTTCAAGCGCCATCTAC” is 0.386; for “GATGATTGTTCTCCCAGCTGATGAATTAGAGTGCTCGAGTAAACAAATTTTCCTAATCTTTCTGTTCAAGCGCCATCTAC” it is 0.527; for “GATGATTGTTCTCCCAGCTGATGAATTAGCGGTATCGAGTAAACAAATTTTCCTAATCTTTCTGTTCAAGCGCCATCTAC” it is 0.625.
With “GATGATTGTTCTCCCAGCTGATGAATTGATTAGTTCGAGTAAACAAATTTTCCTAATCTTTCTGTTCAAGCGCCATCTAC”, the binding signal (RPM ratio (pull-down/input)) came out at 1.87.
On to “GATGATTGTTCTCCCAGCTGATGAATTAATTGCGTCGAGTAAACAAATTTTCCTAATCTTTCTGTTCAAGCGCCATCTAC”, for which the binding signal (RPM ratio (pull-down/input)) turned out to be 1.46.
For “GATGATTGTTCTCCCAGCTGATGAATTACTTACATCGAGTAAACAAATTTTCCTAATCTTTCTGTTCAAGCGCCATCTAC”, the binding signal (RPM ratio (pull-down/input)) was 0.574.
